# Over roughly 110,000 compounds, “z-score” has its median near -0.1; the highest 2% begin near 2. This is one part of the list. Calls of active or inactive are those of the source.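 How the source made its calls: active means z-score in the third read window above 3 or below -3; inactive means the rest.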
# Biological target: Metabotropic glutamate receptor 8 (Rattus norvegicus) (UniProt P70579)
# Experiment: mGluR8 Gi/Go-coupled signaling modulation – cell-based, rat, thallium flux, HTS, primary screen (AID 488969)
# Settings: HEK293 rat mGluR8, GIRK (G protein-gated inwardly rectifying potassium channel) thallium flux, FluoZin2; at 10 µM; stronger effect = higher value; submaximal glutamate (EC20) added with thallium
# Sequence of UniProt P70579 (P70579 whole entry, looked up): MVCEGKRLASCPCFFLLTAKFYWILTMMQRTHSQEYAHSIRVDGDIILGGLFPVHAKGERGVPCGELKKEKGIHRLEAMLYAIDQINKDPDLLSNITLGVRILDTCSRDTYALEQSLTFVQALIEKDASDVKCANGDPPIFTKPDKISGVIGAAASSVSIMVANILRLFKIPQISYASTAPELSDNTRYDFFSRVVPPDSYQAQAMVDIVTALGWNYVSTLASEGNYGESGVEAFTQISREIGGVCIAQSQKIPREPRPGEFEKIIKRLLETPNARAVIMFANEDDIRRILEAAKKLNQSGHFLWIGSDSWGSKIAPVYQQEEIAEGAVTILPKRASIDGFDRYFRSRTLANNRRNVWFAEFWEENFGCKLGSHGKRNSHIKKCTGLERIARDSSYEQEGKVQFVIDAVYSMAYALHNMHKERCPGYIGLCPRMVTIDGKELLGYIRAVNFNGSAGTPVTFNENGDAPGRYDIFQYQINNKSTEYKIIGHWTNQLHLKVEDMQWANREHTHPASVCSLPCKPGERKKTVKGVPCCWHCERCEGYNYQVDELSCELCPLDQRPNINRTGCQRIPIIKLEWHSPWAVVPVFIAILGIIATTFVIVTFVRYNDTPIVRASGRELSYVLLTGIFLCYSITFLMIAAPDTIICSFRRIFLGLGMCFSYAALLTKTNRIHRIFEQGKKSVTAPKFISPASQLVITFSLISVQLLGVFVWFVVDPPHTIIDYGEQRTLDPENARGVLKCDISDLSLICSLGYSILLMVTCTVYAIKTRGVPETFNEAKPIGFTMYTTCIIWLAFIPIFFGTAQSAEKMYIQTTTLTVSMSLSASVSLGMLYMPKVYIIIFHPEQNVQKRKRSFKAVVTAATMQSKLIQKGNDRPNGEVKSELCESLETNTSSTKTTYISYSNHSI
row,Structure (SMILES),z-score
1,c1ccc(Cn2nc(-c3ccccc3)nc2-c2ccccc2)cc1,-0.141
2,Cc1cccc(NC(=O)c2sc(C)nc2C)c1,-0.151
3,Cc1ccc(N(CC(=O)N/N=C/c2ccc(OC3CSC3)cc2)S(=O)(=O)c2ccccc2)c(C)c1,-0.326
4,COc1ccc(S(=O)(=O)N2CCOCC2)c(C)c1C,-0.156
5,CSc1nc(C)c(CCOC(=O)c2ccccc2)c(=O)[nH]1,0.0706
6,COc1cccc(C(=O)Nc2cc(C)ccc2NC(=O)COc2ccccc2)c1,-0.188
7,COc1cccc(/C(C)=N/NC(=O)c2ccc(N(C)C)cc2)c1,-0.258
8,OCCN1CCN(c2nc(-c3ccccc3)nc3c2oc2ccccc23)CC1,0.252
9,CC(C)OC(=O)c1ccc(Cn2nnc3ccccc3c2=O)cc1,-0.565
10,CCOc1ccc2nc(-c3ccccc3)[nH]c2c1,1.25
11,O=C(COC(=O)[C@H](Cc1ccccc1)NC(=O)c1ccco1)NCc1ccccc1,-0.495
12,COc1ccc(-n2c(C)cc(/C=N/Nc3nnc(C)n3N)c2C)cc1,0.00233
13,COC(=O)c1ccc(COc2ccccc2/C=N/NS(=O)(=O)c2ccccc2)cc1,-0.0877
14,COCCn1nnnc1C(c1cc2cc(C)ccc2[nH]c1=O)N1CCc2ccccc21 (configuration not stated),0.00622
15,Cc1cccc(C(=O)Nc2oc(-c3ccccc3)cc2C#N)c1,0.355
16,C=CCc1cccc2cc(C(=O)N(C)C)c(=O)oc12,0.176
17,O=C(COC(=O)c1ccc(S(=O)(=O)NCc2ccco2)cc1)NCCC1=CCCCC1,-0.143
18,Cc1nnc(SCC(=O)NC(C)(C)C)n1CCc1ccccc1,0.587
19,O=C(NNC(=O)c1ccccc1Cl)c1ccncc1,-0.0706
20,Fc1ccc(-c2csc3[n+]2CCS3)cc1,-0.0214
21,Cc1cc(C)nc(-n2nc(C)cc2Nc2ccccc2)n1,-0.115
22,CCCc1cc(=O)n2[nH]c(C)cc2n1,-0.851
23,COc1ccc(-c2nnc3n2N=C(C)CS3)cc1,-0.114

row,Structure (SMILES),z-score
1,NS(=O)(=O)c1ccc(NC(=O)COC(=O)C2(c3ccc(F)cc3)CCCC2)cc1,-0.116
2,Cc1cccc2sc(NC(=O)CSCc3ccccc3)nc12,0.801
3,CCOc1ccc(C(=O)Nc2ccc(N3CCCC3)cc2)cc1,-0.201
4,CCS(=O)(=O)N1CCC(C(=O)NCCCN2CCC(Cc3ccccc3)CC2)CC1,-0.302
5,CCC(C)N1C(=O)CCC1C(=O)N1CCN(c2ccc(F)cc2)CC1 (configuration not stated),-0.174
6,CC(C)CNC(=O)COc1cccc(C(=O)NCc2ccccc2)c1,-0.218
7,Cc1ccc(-c2cnc(NC(=O)CCC(=O)N3CCCCC3)n2C)cc1,active: 4.3
8,CC(C)c1ccccc1NC(=O)COC(=O)Cc1cccc(C(F)(F)F)c1,-0.0324
9,COc1ccc(-c2onc3ccc(Cl)cc23)cc1,-0.408
10,O=C1CN(C(=O)c2ccc(Br)o2)C(c2ccc(F)cc2)c2cc(F)ccc2N1 (configuration not stated),-0.22
11,Cc1cc(C)cc(OCc2nnc(SCC(=O)c3ccccc3)o2)c1,-0.221
12,CCOC(=O)c1sc2ncn(C(CC)C(=O)OCC)c(=O)c2c1C (configuration not stated),-0.466
13,Cc1nn(-c2ccccc2)c2[nH]c(=O)c(CNCCN3CCOCC3)cc12,0.0368
14,CCOC(=O)C1CCCN(C(=O)c2ccccc2SCCOC)C1 (configuration not stated),0.188
15,Cc1sc2ncnc(SCc3ccco3)c2c1C,active: 3.43
16,Cc1c(Cl)c(C(F)(F)F)nn1CC(=O)NCc1ccccc1,0.493
17,CCOc1ccc2ccccc2c1/C=N/NC(=O)CNC(=O)C(c1ccccc1)c1ccccc1,0.157
18,CC1CC(C)CN(CCCNC(=O)c2ccc(CS(=O)(=O)Cc3ccccc3F)o2)C1 (configuration not stated),-0.9
19,Cc1c(C)c2cc(Cl)c(O)c(CN(C)C)c2oc1=O,1.04
20,Cc1cccc(C)c1OCC(=O)NNC(=O)c1ccoc1C,-0.00903
21,COc1ccc(Cn2nnnc2C(CC(C)C)N2CCN(c3ccccc3)CC2)cc1 (configuration not stated),-0.576
22,CC(C)(C)CC(=O)NC(=S)N1CCCCCC1,0.0762
23,COc1cc(OC)c(NC(=O)c2ccc(Br)o2)cc1Cl,-0.3

row,Structure (SMILES),z-score
1,COC(=O)c1cn(NC(=O)C2CCCO2)c(=O)c2ccccc12 (configuration not stated),-0.246
2,CSc1nc(-c2ccc(C)cc2)nc(C(Cl)Cl)n1,0.109
3,CC(C)C(=O)Nc1cccc(C(=O)NCc2ccc3c(c2)OCO3)c1,-0.282
4,CCOc1cccc(/C(O)=C2/C(=O)C(=O)N(CCOC)C2c2ccco2)c1 (configuration not stated),0.0983
5,CC(C)CCNC(=O)NC(=O)CSc1nnc(-c2ccccc2F)n1N,-0.138
6,CCOc1ccc(C(CCc2ccccc2)NC(=O)c2ccc(OC)c(OC)c2)cc1OCC (configuration not stated),-0.35
7,CN(C)c1nc2n(c(=O)n1)CCS2,-1.38
8,Cc1nn(Cc2ccc(Cl)cc2)c2sc(C(=O)OCC(N)=O)cc12,0.107
9,Cc1ccc(OCCN2CCN(C(=O)CCC(=O)Nc3nnc(C)s3)CC2)cc1,-0.133
10,CC(C)OC(=O)CSc1nnnn1-c1ccc2c(c1)OCCO2,0.195
11,Cc1ccc(C)c(NC(=O)c2ccccn2)c1,0.832
12,Cc1ccc(CSCC(Nc2ccc(C(=O)O)cc2[N+](=O)[O-])C(=O)O)cc1 (configuration not stated),-0.165
13,Cn1c(C(=O)NCCCN2CCN(c3ccccc3F)CC2)cc2c(=O)n(C)c3ccccc3c21,2.46
14,COC(=O)c1ccccc1OC(=O)c1ccc(Br)o1,-0.504
15,CCOc1cccc(C(=O)Nc2ccccc2OC(F)F)c1,-0.614
16,COc1ccc(C2(CNC(=O)Cc3ccc(OC)c(OC)c3)CCOCC2)cc1,0.253
17,COc1ccccc1-c1cc(C(F)(F)F)nc(N2CCN(c3ccccc3)CC2)n1,1.47
18,CCOc1ccc(N2CC(C(=O)Nc3ccccc3OC)CC2=O)cc1 (configuration not stated),1.1
19,COc1ccc(-n2c(=O)cc(N3CCCCCC3)[nH]c2=O)cc1,-0.398
20,O=C(CCc1ccccc1)Nc1c(F)cccc1F,-0.0866
21,COC(=O)c1ccsc1NC(=O)C1=COCCO1,-0.298
22,CCN(CC)CC(=O)N1c2ccccc2Sc2ccc(Cl)cc21,0.474
23,Cc1ccc(CNC(=O)c2cc3c(=O)n(C)c4ccccc4c3n2C)cc1,1.16

row,Structure (SMILES),z-score
1,O=C(/C=C/c1ccccc1)NC(=S)NNC(=O)c1ccco1,0.343
2,CCCCCCNS(=O)(=O)c1ccc(OC)c(OC)c1,0.36
3,COC(=O)c1cc2c(s1)CS(=O)C2 (configuration not stated),-0.11
4,Cc1cc(C(=O)NP(=O)(N2CCOCC2)N2CCOCC2)c(C)n1-c1ccc(Br)cc1,0.0525
5,N#CCCN1CCN(CCC#N)CC1,-0.166
6,COc1ccc(C(=O)N2CCN(c3nnnn3-c3ccccc3)CC2)cc1OC,0.191
7,CN(C)S(=O)(=O)N1CCN(c2ccc(Cl)cc2)CC1,0.221
8,Cc1oc(-c2ccccc2)cc1C(=O)Nc1ccc2ccccc2c1,-0.569
9,CSc1ccccc1-c1nnc(-c2ccc(Cl)c(Cl)c2)o1,-0.461
10,CCCOC1OC(=O)c2c1ccc(OC)c2OC (configuration not stated),-0.0106
11,COc1ccc(C)cc1NC(=O)C1C2C=CC(C2)C1C(=O)O (configuration not stated),0.33
12,O=S(=O)(c1ccc(Cl)cc1)N1CCN(Cc2c[nH]c3ccccc23)CC1,-0.199
13,COc1cc(OC)cc(C(=O)NCc2n[nH]c(=S)n2-c2ccccc2OC)c1,-0.981
14,COc1ccc(S(=O)(=O)N(C)c2ccc(C(=O)N3CCOCC3)cc2)cc1OC,-0.116
15,O=C(CN1CCC(O)(c2ccc3c(c2)OCO3)CC1)OC1CCCCC1,-0.00376
16,O=C(c1ccc(F)cc1)N1CCN(c2ccc([N+](=O)[O-])c(N3CCOCC3)c2)CC1,-1.6
17,CC(=O)Nc1cc(C(=O)N2CCOCC2)ccc1S(=O)(=O)c1ccc(C)cc1,0.227
18,Fc1ccc2c(c1)[C@H]1OCC[C@H]1[C@@H](c1ccco1)N2,0.236
19,COc1ccc(-n2c(SC(C)C(=O)Nc3ncc(Cl)cc3Cl)nc3ccccc32)cc1 (configuration not stated),-0.385
20,Cc1ccc(NC(=O)N2CCC(C(=O)NCc3ccc(F)cc3)CC2)cc1,2.21
21,CC(NC(=O)c1ccco1)C(=O)N1CCc2ccccc2C1 (configuration not stated),-0.17
22,O=C(Nc1nnc(-c2ccccn2)o1)c1ccc(Br)cc1,2.32
23,CCOc1ccc(-c2nnc3sc(-c4ccccc4OC)nn23)cc1,0.597

row,Structure (SMILES),z-score
1,COc1ccc(OC)c(NC(=O)COC(=O)CNC(=O)c2ccc(OC)c(OC)c2)c1,-0.0746
2,COc1ccc2c(=O)c3c(=O)n(Cc4ccco4)c(-c4cc(OC)c(OC)c(OC)c4)nc3oc2c1,-0.406
3,CCN(CC)C(=O)CSC1c2ccccc2C(=O)N1c1ccccc1 (configuration not stated),0.17
4,CCOC(=O)CSc1nnc2c(n1)C1(C)CCC2C1(C)C (configuration not stated),0.477
5,Clc1ccc(-c2cn3cccnc3n2)cc1Cl,-0.72
6,CCC(=O)N1CCc2cc(S(=O)(=O)NC(Cc3ccccc3)C(=O)NC3CCCCC3C)ccc21 (configuration not stated),-0.218
7,Cc1ccc(C(=O)N(Cc2ccc3c(c2)OCO3)Cc2nc3ccccc3c(=O)[nH]2)cc1,0.705
8,Cc1ccccc1NC(=O)Cn1nc(C(F)(F)F)cc1C1CC1,0.0627
9,COc1ccc(CCn2c(N)cc(=O)[nH]c2=S)cc1OC,0.151
10,O=C(N/N=C/c1cccc([N+](=O)[O-])c1)C1CC(=O)N(c2ccc(Br)cc2)C1 (configuration not stated),-0.256
11,CCN1CCN(C(=O)CN(c2ccccc2C)S(C)(=O)=O)CC1,-0.338
12,CCOC(=O)N1CCN(C(=S)Nc2cccc(C)c2C)CC1,-0.146
13,Cc1cc(C)n(S(=O)(=O)/C=C/c2ccccc2)n1,-0.135
14,O=C(COc1ccccc1)Nn1c(-c2ccccc2)nc2ccccc2c1=O,0.42
15,Cc1cc(C(=O)CSc2nc3ccc(Cl)cc3[nH]2)c(C)n1C,0.451
16,O=C(/C=C/c1ccc(Cl)cc1)NC(=S)Nc1ccc(N2CCOCC2)c(Cl)c1,-0.506
17,COCCn1nnnc1C(c1ccccn1)N1CCN(c2cccc(C)c2C)CC1 (configuration not stated),-0.423
18,CC1(C)CC(=O)C2=C(C1)N=C1SCCC(=O)N1C2c1ccccc1 (configuration not stated),0.861
19,COc1ccc(C(=O)Nc2cccc(C(C)=O)c2)c(OC)c1OC,-0.26
20,Cc1ccc([N+](=O)[O-])cc1S(=O)(=O)NCCc1c(C)[nH]c2c(C)cccc12,-0.135
